Results from PMC4242493.
The list shows a part of the results. The list includes weakly bound sequences.

Molecular target: MaxL homodimer (UniProt P61244)
Assay: universal protein-binding microarray (PBM)
Settings: PBS-based mixture, 10 nM His-tagged protein dimer, 2% milk, 200 ng/uL BSA, 50 ng/uL salmon testes DNA, 0.02% TX-100; detection with Alexa 488 anti-His …; high values mean tight binding; most listed sequences are background and not binding sites; double strand, one strand shown

Chain of UniProt P61244 (P61244 whole entry): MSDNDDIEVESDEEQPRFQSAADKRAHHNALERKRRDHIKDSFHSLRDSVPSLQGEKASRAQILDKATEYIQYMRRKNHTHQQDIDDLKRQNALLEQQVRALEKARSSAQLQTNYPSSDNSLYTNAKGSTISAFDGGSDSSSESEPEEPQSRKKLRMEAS

Sequence | binding signal (normalized occupancy)
CTGTTGTA | 0.0736
AGCGAATA | 0.0765
CGGTGTAG | 0.0813
CCAAGTAG | 0.0701
CTTCGGGA | 0.0664
ACCGACGA | 0.076
CAATGTAG | 0.0752
GAAATTCC | 0.071
AGACGCCG | 0.0686
AGATGAAG | 0.0748
AGGGCAAT | 0.0741
ACGCCAAA | 0.0716
ACTAGGAC | 0.0705
GCCTGTCC | 0.0705
AAACTCGA | 0.0712
CGACCCGC | 0.0737
TAATAAAA | 0.0775
ATAGCAGC | 0.074
CAACGGCA | 0.073
TAATGCCA | 0.0764
TCCAGAAA | 0.0716
CGCCATTC | 0.0761
CCAAACGC | 0.073
GGGCGTAA | 0.0785
ATTTGGCC | 0.0744

Sequence | binding signal (normalized occupancy)
CAGAGTTC | 0.0676
TCCTGGCA | 0.0724
GGAACGCC | 0.0729
ACCGCCGG | 0.0692
ACCGGGAA | 0.0746
AGAGATCT | 0.0762
CAATACCA | 0.0823
CCTTCCCA | 0.0748
CGGCACGC | 0.0851
TGATGGAA | 0.0835
GTATCGCA | 0.0739
ATGCAGGA | 0.0793
GGATTGCA | 0.0751
TCACATAA | 0.0812
CCAAGATC | 0.0712
AGGGGCGC | 0.0731
ACCTCCCA | 0.0834
CGACCTCA | 0.0854
ACCTCCCT | 0.0732
CTGAATAA | 0.0766
CGAAGCAA | 0.0734
GAAACGGA | 0.0715
CACCGTGA | 0.0822
TAACGGGA | 0.0763
ACTTAGAC | 0.0725

Sequence | binding signal (normalized occupancy)
TCACTACA | 0.0758
AACATAGG | 0.0799
ATTGGTGC | 0.0699
TCATCGCA | 0.0775
AAATTGGA | 0.0736
GCAGGCAC | 0.0718
CTGCCTGA | 0.0745
TCAGCCGA | 0.0691
ATGGAGTC | 0.0808
CTTACAAG | 0.0751
CTACAAGC | 0.0715
GCAGTCAC | 0.0758
ATGGCGTC | 0.077
CAGTCTTC | 0.0712
ATGTTACG | 0.0818
CTGTCCCA | 0.0819
CGGAAGCC | 0.0624
CAGACGGA | 0.0682
ACGACTTA | 0.0774
ATTGACCA | 0.0826
TACAGCGA | 0.0766
ATTACCCG | 0.0805
AGACTCCC | 0.072
GCCTCGAA | 0.0679
TACAGTCA | 0.082

Sequence | binding signal (normalized occupancy)
ACCTCTTG | 0.0707
ACTGCCCG | 0.0714
ATGTACAA | 0.0815
CCAAGACC | 0.0699
CTCCTACC | 0.0735
ATTAGTAC | 0.0786
AGTCGCAA | 0.0744
AAATAATG | 0.0782
AAGCGAAA | 0.0696
ACACAAGT | 0.0788
TATCCTCA | 0.0868
ACGTTGAG | 0.0783
AGTTTTGC | 0.0702
ATGCTACG | 0.086
TAACTCGA | 0.0775
GAAATTAA | 0.0782
ACCATGAT | 0.084
CGTCCAAC | 0.0717
AAACCCAT | 0.0794
CATACCTA | 0.0793
AAGTGAAA | 0.0707
AAACCATG | 0.0886
ACGACGAG | 0.0759
GCATGTAA | 0.0836
GTGGTCTA | 0.0734

Sequence | binding signal (normalized occupancy)
AGCTCTTG | 0.071
ATCTTCTC | 0.0795
CGCCGGGC | 0.0692
GATGGCAA | 0.0752
CGCGTAGA | 0.072
GGAAGTCC | 0.0697
ATCATCAT | 0.0851
CACGAAGA | 0.0779
TGTAACAA | 0.0771
ATGAGCCG | 0.076
AGTCACTG | 0.0725
CCTGTCGC | 0.0739
GAACTCCA | 0.0784
CACACGTA | 0.0925
AAAGATGA | 0.077
CCAAACCC | 0.0843
GGCCAACA | 0.076
GCCCTCGA | 0.0765
ACGGGAGA | 0.0709
AATAAGCT | 0.071
GAGTGCAA | 0.0744
AAGGCCTG | 0.0683
AATATGCG | 0.0761
CCGCTGAA | 0.0661
CTCGGAGC | 0.0683

Sequence | binding signal (normalized occupancy)
AAATTCAT | 0.0768
GACGCTTA | 0.0768
GGAGGCTA | 0.0697
CAAGGGGA | 0.0766
ATTTGGTA | 0.0708
CCTGGACC | 0.0723
CTAAGTAA | 0.0727
ACTTGCGA | 0.0744
CTTGATCC | 0.0766
CAAGGAAA | 0.0736
AATGTTAC | 0.0779
ACGTCCTG | 0.0703
GTCGTGAA | 0.0758
TCCGTCAA | 0.0696
CGCCAAAC | 0.0725
CTCATATC | 0.0798
CACTAAAA | 0.0821
AAACAAGA | 0.0748
CGAAACAC | 0.0785
CAAGGGAG | 0.0718
AAACTTAA | 0.0725
AAGTCCCG | 0.0706
CTCGGAAG | 0.0704
GCGGCCGA | 0.0676
GAGAAGCC | 0.0675

Sequence | binding signal (normalized occupancy)
ATCCAGCA | 0.079
CTGTAACC | 0.0725
CGACCCCG | 0.0694
AAGACCCA | 0.0693
TCCGGCAA | 0.0695
CATCAGCG | 0.0771
GAACACAA | 0.0743
CCTGATTC | 0.0762
AAACGCCC | 0.0747
AAGAACGA | 0.0709
CCATTTTA | 0.0772
AGTTCCAG | 0.0709
GATAAACA | 0.0718
CTGTTCGA | 0.0715
TACATGCA | 0.0895
TATTGGGA | 0.0786
AAGGGGTG | 0.0813
CGTGGATA | 0.0917
CGCGATAG | 0.0701
AAGATGTG | 0.0819
TATACATA | 0.0935
ACTAGGTA | 0.0763
CGAATTTA | 0.0739
CCTTGCAC | 0.0755
CCACCTCA | 0.0833

Sequence | binding signal (normalized occupancy)
ATGTACGA | 0.0873
TTTCCAAA | 0.077
CATGCACG | 0.101
AAATCGTA | 0.0748
CGTCAAGC | 0.0703
GGACGGGA | 0.0731
ACGCTCAC | 0.08
GGGTTAAA | 0.0779
ACAAGTCA | 0.0774
AATAGTCT | 0.0758
GGGTGTGA | 0.0831
ATGGCTTG | 0.079
AGGTGAAT | 0.0784
CGGGGCCA | 0.0685
CACTATAC | 0.0789
CCACGCCG | 0.0985
ACATCCGT | 0.0774
ACGGGGCT | 0.0777
AATGGCCC | 0.0752
ATATATAT | 0.0877
TGAGAACA | 0.0777
CGGAGGGC | 0.0668
TCCCACCA | 0.0772
TAGTCGAA | 0.0737
AACAGCTT | 0.0725

Sequence | binding signal (normalized occupancy)
CCTCAGAC | 0.0778
GCAGGGCA | 0.0689
AATGGTAT | 0.0816
CACTCGCG | 0.0788
CTCAAGAC | 0.0714
AGTATAAA | 0.0802
ATGTCCTC | 0.0844
AACGTAGG | 0.0742
ATTTGTTA | 0.0764
CAACACTC | 0.0756
CCAACGTC | 0.0727
GTCTAATA | 0.0809
ATTCACCG | 0.0732
ACTATAGT | 0.0757
CTAGCGTA | 0.0708
ACGACGCG | 0.0739
AAGTCGCA | 0.0768
GTAACTGA | 0.0702
ACAACCCA | 0.0762
